Laboratory results: PMC6919601, “Identification of Plasmodium dipeptidyl aminopeptidase allosteric inhibitors by high throughput screening” (PLoS ONE, 2019)
Where “and” joins values, the source holds several entries; their conditions need not be identical. Equal values may be shown once. Screen size: about 110,000 compounds; about 230 (0.21%) showed an effect of 50% or more. This is one part of the list.
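Further: 30 min substrate incubation versus DMSO and 10 µM JCP410 controls.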

The compounds below were run against DPAP1 (Plasmodium falciparum, UniProt Q8IIJ9) (assay: primary screen, percent inhibition; read by cleavage of a fluorogenic dipeptide substrate; higher = more effect of the substance).
Sequence of DPAP1 (Q8IIJ9 whole entry, looked up): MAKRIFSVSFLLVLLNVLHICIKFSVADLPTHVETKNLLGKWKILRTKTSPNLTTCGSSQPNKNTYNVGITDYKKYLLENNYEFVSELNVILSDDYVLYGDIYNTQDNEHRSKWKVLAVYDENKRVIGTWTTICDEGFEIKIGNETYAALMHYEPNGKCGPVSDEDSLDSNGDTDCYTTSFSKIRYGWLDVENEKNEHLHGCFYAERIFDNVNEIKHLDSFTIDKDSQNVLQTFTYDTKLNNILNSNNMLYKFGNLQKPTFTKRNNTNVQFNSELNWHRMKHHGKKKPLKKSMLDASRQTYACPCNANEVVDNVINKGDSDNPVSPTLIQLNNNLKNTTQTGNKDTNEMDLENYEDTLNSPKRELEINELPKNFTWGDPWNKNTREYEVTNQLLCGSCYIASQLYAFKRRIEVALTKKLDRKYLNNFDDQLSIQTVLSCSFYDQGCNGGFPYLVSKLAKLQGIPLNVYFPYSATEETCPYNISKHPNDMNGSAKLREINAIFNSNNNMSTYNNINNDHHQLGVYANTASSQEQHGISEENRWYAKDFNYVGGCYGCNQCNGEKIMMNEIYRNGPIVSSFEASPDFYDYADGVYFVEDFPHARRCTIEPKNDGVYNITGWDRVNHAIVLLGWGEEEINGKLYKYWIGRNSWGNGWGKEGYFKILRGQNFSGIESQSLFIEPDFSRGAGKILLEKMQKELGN
Design: species or system P. falciparum D10 trophozoite lysates; single well
For COc1ccc(CNC(=O)c2cnc3ccc(S(=O)(=O)N4CCOCC4)cc3c2Cl)cc1, the “% Inhibition @ 10 uM” value was 9.04%. With CC1CC(C)CN(C(=O)CSc2nc3ccccc3c3nc4ccccc4n23)C1 (stereo not drawn) the “% Inhibition @ 10 uM” value was 4.33%. For CS(=O)(=O)c1oc(-c2cccs2)nc1S(=O)(=O)c1ccc(F)cc1, the “% Inhibition @ 10 uM” value was -1.22%. Cc1cc(C=O)c(C)n1-c1cccnc1 was tested, and the “% Inhibition @ 10 uM” value was -6.28%. With Cc1ccccc1C(=O)N1CCN(C)CC1 the “% Inhibition @ 10 uM” value was -3.05%. In the case of c1ccc(N2CCN(C3CCCCCCC3)CC2)cc1, the “% Inhibition @ 10 uM” value was -5.44%. CN(C)C(=O)N1CCC(C(=O)NCc2ccc(F)cc2)CC1 was tested, and the “% Inhibition @ 10 uM” value was 2.05%. With COc1ccc(-c2noc(CC(=O)NCc3ccc(Cl)cc3)n2)cc1 the “% Inhibition @ 10 uM” value was 5.09%. For CCC(=O)Nc1cc2nn(-c3ccc(Cl)cc3)nc2cc1C, the “% Inhibition @ 10 uM” value was -7.69%. O=c1cc(O)nc(SCc2ccc(Cl)cc2)n1-c1ccccc1 was tested, and the “% Inhibition @ 10 uM” value was 9.4%. In the case of COc1ccc(C2(CNC(=O)c3ccc(OC)cc3OC)CCOCC2)cc1, the “% Inhibition @ 10 uM” value was 3.15%. With CC(C)C/N=C1/C=C(O)CC(c2ccco2)C1 (stereo not drawn) the “% Inhibition @ 10 uM” value was 1.82%. Cc1ccc(C2CC(C(F)(F)F)n3nc(C(=O)NCc4c(C)nn(C)c4C)c(Cl)c3N2)cc1 (stereo not drawn) was tested, and the “% Inhibition @ 10 uM” value was -4.67%. With COc1ccc(NC(=O)CCC2CCCC2)cc1 the “% Inhibition @ 10 uM” value was 2.64%. For COc1ccc(/C=C2\SC(N3CCN(C)CC3)=NC2=O)cc1OC, the “% Inhibition @ 10 uM” value was -1.08%. In the case of CC(C)CNS(=O)(=O)c1ccc(CCC(=O)Nc2cccc(F)c2)cc1, the “% Inhibition @ 10 uM” value was -0.545%. With COc1ccc(OC)c(CN2CCSCC2)c1 the “% Inhibition @ 10 uM” value was 3.8%. In the case of CCOC(=O)c1c(C)c(C(=O)NCCCN(C)C)c(C)n1CC, the “% Inhibition @ 10 uM” value was 0.0579%. With CCNc1nc(N2CCOCC2)nc(-n2nnc(C(=O)OCC)c2C)n1 the “% Inhibition @ 10 uM” value was -0.703%. With Cc1ccc(C2CC(c3c(O)cc(C)oc3=O)=NCCS2)cc1 (stereo not drawn) the “% Inhibition @ 10 uM” value was 0.774%. Clc1ccccc1OCCCCCCN1CCOCC1 was tested, and the “% Inhibition @ 10 uM” value was 1.83%. In the case of Cc1ccc(C(=O)N/C(=C/c2ccc(Cl)cc2)C(=O)O)cc1, the “% Inhibition @ 10 uM” value was 5.2% and -4.27%. In the case of O=C1/C(=C/c2ccc3ccccc3c2)Cc2ccccc21, the “% Inhibition @ 10 uM” value was 6.11%. CC1CC(C)CN(c2oc(/C=C/c3cccs3)nc2C#N)C1 (stereo not drawn) was tested, and the “% Inhibition @ 10 uM” value was -3.49%. With CCc1ccc(/N=c2\oc(C)cc(O)c2C(C)=O)cc1 the “% Inhibition @ 10 uM” value was -4.41%. For CC(C)CC(C(=O)NCCN1CCOCC1)N1Cc2ccccc2C1=O (stereo not drawn), the “% Inhibition @ 10 uM” value was 1.34%. With Fc1ccc(N2N=C(c3cccs3)CC2c2ccco2)c(F)c1 (stereo not drawn) the “% Inhibition @ 10 uM” value was -2.36%. With CC1=NN(c2nc(O)cc(-c3ccccc3)n2)C(=O)C1 the “% Inhibition @ 10 uM” value was 1.04%. With CCOC(=O)c1c(C)[nH]c(C)c1S(=O)(=O)NCC(=O)Nc1cccc(C)n1 the “% Inhibition @ 10 uM” value was 18.4%. For CCOc1ccc(/C(O)=C/C=N/c2ccc(C(C)=O)cc2)cc1, the “% Inhibition @ 10 uM” value was -2.68%. For COc1ccccc1N1CCN(C2CC(=O)N(c3cccc(Br)c3)C2=O)CC1 (stereo not drawn), the “% Inhibition @ 10 uM” value was 4.11%. With COc1cc(C2CCCCC2C)cc(OC)c1OC (stereo not drawn) the “% Inhibition @ 10 uM” value was -3.83%. In the case of CCOc1ccc(OCC)c(C2C(C#N)=C(N)Oc3[nH]nc(C)c32)c1 (stereo not drawn), the “% Inhibition @ 10 uM” value was -1.44%. Cc1ccc(S(=O)(=O)N2CCCC(NC(=O)N3CCCCC3C)C2)cc1 (stereo not drawn) was tested, and the “% Inhibition @ 10 uM” value was -4.67%. In the case of Cc1cc(/C=C2\SC(Nc3ccccc3)=NC2=O)c(C)n1-c1cc(C(=O)O)cc(C(=O)O)c1, the “% Inhibition @ 10 uM” value was 34.2%. In the case of CC(C)C[C@H](NC(=O)OCc1ccccc1OC(F)F)C(=O)NCC#N, the “% Inhibition @ 10 uM” value was 1.71%. CC(C)CNS(=O)(=O)c1ccc(CCC(=O)N2CCN(c3ccc(F)cc3)CC2)cc1 was tested, and the “% Inhibition @ 10 uM” value was -2.74%. In the case of CSc1ccc(/C=C2/N=C(c3cccc4ccccc34)OC2=O)cc1, the “% Inhibition @ 10 uM” value was -4.2%. With Cc1cc2ccccc2n1CCNC(=O)C(C)C the “% Inhibition @ 10 uM” value was -1%. With CCOc1ccc(OCc2ccc(C(=O)N3N=C(C)CC3(O)C(F)(F)F)o2)cc1 (stereo not drawn) the “% Inhibition @ 10 uM” value was 0.709%. For Cc1cc(C)c(S(=O)(=O)Nc2cc(C(F)(F)F)ccc2Cl)c(C)c1, the “% Inhibition @ 10 uM” value was -3.8%. For O=C1C=CC(=O)N1c1ccc(-c2ccccc2)cc1, the “% Inhibition @ 10 uM” value was 0.716%. O=C(NCCC1=CCCCC1)C1CCN(C(=O)c2ccc(Br)cc2)CC1 was tested, and the “% Inhibition @ 10 uM” value was -9.29%. CCc1nnc(SCc2nc(-c3ccccc3)oc2C)c2cc3occc3n12 was tested, and the “% Inhibition @ 10 uM” value was 2%. In the case of Cc1cccn2c(=O)c3cc(C(=O)N4CCN(C)CC4)c(=N)n(Cc4cccnc4)c3nc12, the “% Inhibition @ 10 uM” value was 5.17%. For c1ccc(CCNCc2ccccc2)cc1, the “% Inhibition @ 10 uM” value was -0.736%. In the case of N#Cc1c(NC(=O)COc2ccc(F)cc2)sc2c1CCCC2, the “% Inhibition @ 10 uM” value was 2.38%. For Cc1ccc2c(Cl)c(C(=O)Nc3cc(S(N)(=O)=O)ccc3C)sc2c1, the “% Inhibition @ 10 uM” value was 4.32%. COC(=O)c1ccc2c(c1)C(=O)N(c1ccccc1OC)C2=O was tested, and the “% Inhibition @ 10 uM” value was -5.36%. With CCOC(=O)c1cnn(-c2ccccc2)c1NC(=O)c1cccs1 the “% Inhibition @ 10 uM” value was 9.47%. For Cc1cccc(C)c1NC(=O)C1CC=CCC1C(=O)O (stereo not drawn), the “% Inhibition @ 10 uM” value was -3.04%. C=CCNC(=O)c1cc2c(=O)n3cc(C)ccc3nc2n(CCOC)c1=N was tested, and the “% Inhibition @ 10 uM” value was -3.27%. With COCCCNC(=O)Cn1cc(C(=O)c2ccccc2)c(=O)c2ccc(C)nc21 the “% Inhibition @ 10 uM” value was -0.436%. For O=C(NCCN1CCOCC1)c1ccc(CS(=O)c2ccccc2Cl)o1 (stereo not drawn), the “% Inhibition @ 10 uM” value was 0.677%. With O=S1(=O)C(/C=N/Cc2ccc(F)cc2)=C(O)c2sccc2N1Cc1ccccc1 the “% Inhibition @ 10 uM” value was -2.35%. With COc1ccccc1C(=O)Nc1sc(C)cc1C(=O)O the “% Inhibition @ 10 uM” value was -7.9%. In the case of COc1ccccc1NC(=O)C(C)Oc1ccc(F)cc1 (stereo not drawn), the “% Inhibition @ 10 uM” value was -1.79%. With C1CCN(c2nc3nonc3nc2N2CCCC2)C1 the “% Inhibition @ 10 uM” value was 5.55%. O=C(NCC1(c2ccccc2)CCCC1)C1(c2ccccc2)CCOCC1 was tested, and the “% Inhibition @ 10 uM” value was -2.59%. NC(=O)COc1cccc(/C=C2/SC(Nc3cccc(C(=O)O)c3)=NC2=O)c1 was tested, and the “% Inhibition @ 10 uM” value was 2.01%. In the case of O=C(CSc1nc(NCCc2ccccc2)c2ccccc2n1)NCc1ccccc1, the “% Inhibition @ 10 uM” value was 4.02%. With CCCCOc1ccc(-c2ncc(C)cn2)cc1 the “% Inhibition @ 10 uM” value was 1.88%. For Cc1ccc(NS(=O)(=O)c2cc(-c3onc(C)c3C)ccc2C)nc1, the “% Inhibition @ 10 uM” value was -10.6%. With COc1ccc(CN2CCN(Cc3ccc(Br)cc3)CC2)c(OC)c1OC the “% Inhibition @ 10 uM” value was -6.27%. With O=S(=O)(c1ccc(Cl)cc1)n1nc(-c2cccnc2)nc1NCc1ccccc1 the “% Inhibition @ 10 uM” value was 2.21%. CC(C)c1ccc(NC(=O)c2ccc3c(c2)OCO3)cc1 was tested, and the “% Inhibition @ 10 uM” value was -1.49%. CCN(CC)c1ccc2c(c1)OC(N)=C(C#N)C2c1cccs1 (stereo not drawn) was tested, and the “% Inhibition @ 10 uM” value was 3.96%. With Nc1cccc(-c2cc(C(=O)O)c3ccccc3n2)c1 the “% Inhibition @ 10 uM” value was 2.41%. In the case of CCC(=O)N1N=C2C3CCN(CC3)C2C1c1cc(OC)c(OC)c(OC)c1 (stereo not drawn), the “% Inhibition @ 10 uM” value was 6.31%. For CC1(C)CC(=O)C(=C2NC3(CCCCCC3)Cc3ccccc32)C(=O)C1, the “% Inhibition @ 10 uM” value was 2.38%. Cc1cc(Cl)ccc1OCC(=O)Nc1ccccc1N1CCOCC1 was tested, and the “% Inhibition @ 10 uM” value was -0.425%. With CN1CCN(c2cc(-c3ccc4ccccc4c3)nc3ccccc23)CC1 the “% Inhibition @ 10 uM” value was -6.82%. CCCNC(=O)c1cc2n(n1)C(C(F)(F)F)CC(c1ccc3c(c1)OCO3)N2 (stereo not drawn) was tested, and the “% Inhibition @ 10 uM” value was 2.51%. CCOC(=O)c1cc(-c2ccccc2)n(CCC(=O)NC2CCN(C(=O)OCC)CC2)c1C was tested, and the “% Inhibition @ 10 uM” value was 1.47%. CCC[C@H](NC(=O)[C@H](CCS(=O)(=O)c1ccccc1)NC(=O)N1CCOCC1)C(=O)c1nc2ccccc2o1 was tested, and the “% Inhibition @ 10 uM” value was -10.7%. CC(NC(=O)c1cc(-c2ccc3c(c2)OCO3)nc2ccccc12)C1CCCO1 (stereo not drawn) was tested, and the “% Inhibition @ 10 uM” value was 1.25%. With CCOC(=O)c1sc(NC(=O)/C=C/c2ccco2)nc1C the “% Inhibition @ 10 uM” value was 26.6%. In the case of C=CCN1C(=O)N/C(=C/c2cc(C)n(-c3cc(C)cc(C)c3)c2C)C1=O, the “% Inhibition @ 10 uM” value was 1.71%. For CCNC(=O)CN(Cc1ccc(Br)cc1)S(=O)(=O)c1ccc(C)cc1, the “% Inhibition @ 10 uM” value was -1.6%. In the case of CCCc1cc(=O)oc2c3c(ccc12)OCN(Cc1cccc(OC)c1)C3, the “% Inhibition @ 10 uM” value was 3.36%. For Cc1ccc2onc(CNC(=O)Nc3nc(C)cs3)c2c1, the “% Inhibition @ 10 uM” value was -0.826%. COc1cccc(S(=O)(=O)Nc2ccc(C(=O)Nc3ccc4sc(C)nc4c3)cc2)c1 was tested, and the “% Inhibition @ 10 uM” value was 0.583%. In the case of O=C(C1c2ccccc2C(=O)N(C2CCCC2)C1c1cccs1)N1CCc2ccccc2C1 (stereo not drawn), the “% Inhibition @ 10 uM” value was 2.78%. COc1ccc(Cl)cc1NC(=O)c1ccc(Cn2nc(C)cc2C)o1 was tested, and the “% Inhibition @ 10 uM” value was -5.57%. In the case of S=C(Nc1ccccc1)NC1C2CN3CCN(C2)CC1(c1ccccc1)C3 (stereo not drawn), the “% Inhibition @ 10 uM” value was 1.57%. For CC(C)(C)c1ccc(-c2csc3nc4c5ccccc5c(N5CCOCC5)nn4c(=O)c23)cc1, the “% Inhibition @ 10 uM” value was 1.84%. For Cc1cc(C)c2c(-n3cccc3)c(C(=O)NCCN(C)C)sc2n1, the “% Inhibition @ 10 uM” value was 3.67%. In the case of CCOc1ccccc1NC(=O)c1ccc(Br)o1, the “% Inhibition @ 10 uM” value was 3.04%. For CC1CN(Cc2c(F)cccc2Cl)CC(C)O1 (stereo not drawn), the “% Inhibition @ 10 uM” value was 4.55%. In the case of Cc1cccn2c(=O)c(/C=C(\C#N)C(=O)NC3CCS(=O)(=O)C3)c(Oc3ccccc3Cl)nc12 (stereo not drawn), the “% Inhibition @ 10 uM” value was 3.63%. With O=C(NCCCN1CCC(Cc2ccccc2)CC1)c1ccc2nc(N3CCOCC3)sc2c1 the “% Inhibition @ 10 uM” value was -2.59%. For C=CCNC(=O)CN(c1cc(C(F)(F)F)ccc1Cl)S(=O)(=O)c1ccccc1, the “% Inhibition @ 10 uM” value was 3.62% and 1.19%. Cc1ccc(C)n1-c1nnc(N2CCCC(C(=O)NCc3ccccc3Cl)C2)s1 (stereo not drawn) was tested, and the “% Inhibition @ 10 uM” value was 1.03%. In the case of COCCCNC(=O)c1cc(Sc2cccc(Cl)c2)nc2ccccc12, the “% Inhibition @ 10 uM” value was -2.26%. For COc1cc(C2C(C#N)=C(N)N(c3ccc(Cl)cc3)C3=C2C(=O)CCC3)cc(OC)c1OC (stereo not drawn), the “% Inhibition @ 10 uM” value was -5.07%. With CCCCCc1nn2cc(-c3cccc(OC)c3)nc2s1 the “% Inhibition @ 10 uM” value was -1.16%. In the case of OC(COc1ccc(Cl)cc1)CN1CCN(c2ccccc2F)CC1 (stereo not drawn), the “% Inhibition @ 10 uM” value was -8.86%. CCN(Cc1ccccc1)C(=O)Cn1c(=O)cc(C)c2c(C)nn(C)c21 was tested, and the “% Inhibition @ 10 uM” value was 3.66%. In the case of COc1ccc(CCNC(N)=S)cc1OC, the “% Inhibition @ 10 uM” value was -3.27%.
